Laboratory results reported in ChEMBL document CHEMBL4888484, “Replenishing the malaria drug discovery pipeline: Screening and hit evaluation of the MMV Hit Generation Library 1 (HGL1) against asexual blood stage Plasmodium falciparum ,using a nano luciferase reporter read-out” (2022).
Screen size: about 150,000 compounds; about 540 (0.36%) showed an effect of 50% or more. The list shows a part of the results.

Each compound was assayed on Plasmodium falciparum (assay: Primary screen in NF54 nanoGlo assay, in single point, at 2uM, 72h; a lower Z score goes with more inhibition). Conditions: timepoint 72 hour.
Type: functional, Erythrocyte

| SMILES | % Inhibition [%] | Z score |
| --- | --- | --- |
| NCc1ccc(F)cc1Br | -24 | 2.37 |
| CC(C)C(=O)NCCN(C)[C@H]1CCc2ccccc2NC1=O | -8 | 1.05 |
| C=CCN(Cc1nccn1Cc1ccccc1Cl)S(=O)(=O)c1ccc(OC)cc1 | -17 | 3.03 |
| Cc1ccc(CNC(=O)c2snc(C(=O)NC(C)C)c2N)o1 | -20 | 1.89 |
| O=C(c1cccc(S(=O)(=O)N2CCOCC2)c1)N1CCc2ccccc2C1 | -8 | 0.92 |
| CC[C@@]1(C)CCCN(c2cc(=O)n(C)c(=O)n2C)C1 | -6 | 1.22 |
| COC(=O)[C@@H]1C[C@H](O)CN1Cc1ccccc1N(C)C | -11 | 1.65 |
| Cc1ccc(-c2cc(NC(=O)c3ccccc3)c(=O)n(CC(=O)Nc3ccc(F)cc3)n2)cc1 | -10 | 1.6 |
| CC(C)[C@@H]1N(C(=O)C2(C)COC2)CC12CCC2 | 0 | 0.05 |
| COc1cc2c(cc1O)NC(=O)C[C@H]2c1c(C)nn(C)c1Cl | -2 | 0.2 |
| CCN1CCC[C@H](c2[nH]cnc2-c2ccccc2)C1 | -12 | 1.56 |
| CCOc1ncccc1C(=O)N1CCNC(=O)C[C@@H]1C | 1 | -0.07 |
| CN1CCN(C(=O)CCc2conc2-c2ccccc2)CC1 | 7 | -0.91 |
| Cc1cc(S(=O)(=O)N2CCC[C@@H]2CN)c(C)s1 | -4 | 0.56 |
| NC(=O)c1c(NC(=O)c2ccno2)sc2c1CCCC2 | -15 | 2.27 |
| CN(CC(=O)NC1CC1)C1CCCCCC1 | -7 | 1.08 |
| Cn1c(C2CC2)nn(C[C@H]2CCOC2)c1=O | 4 | -0.61 |
| CC(C)C(=O)N1CCC(c2nn(C)c3c2COCC3)CC1 | -1 | 0.12 |
| Cc1cc(C(=O)N[C@@H](CC(N)=O)c2ccccc2)nn1C | 33 | -3.68 |
| O=S(=O)(c1ccccc1)N1CCC(NC2Cc3ccccc3C2)CC1 | -9 | 1.23 |
| COc1cc(Cl)c(CN2CCN3C(=O)NC[C@H]3C2)cc1Cl | 5 | -0.71 |
| Cc1nc(C2CC2)ncc1C(=O)N1CC[C@@](O)(C2CCOCC2)[C@H](C)C1 | -10 | 0.85 |

| SMILES | % Inhibition [%] | Z score |
| --- | --- | --- |
| COc1ccc(N2CCN(C(=O)Cn3c4ccccc4c4cnn(C)c(=O)c43)CC2)cc1 | -11 | 2.02 |
| CN(CCOC(C)(C)C)C1CCC(CO)CC1 (configuration not stated) | 13 | -1.84 |
| CCOc1ccccc1NC(=O)C[C@H]1C(=O)Nc2ccccc2N1C(=O)COc1ccc(C)cc1 | 5 | -0.71 |
| N#Cc1cccnc1NC1CCCC2OCCC12 (configuration not stated) | 27 | -3.07 |
| CC(C)(C)OC(=O)N1CCNCC1(C)C | 11 | -1.32 |
| CCc1n[nH]c2c1CN([C@@H](C)CCc1c[nH]c3ccccc13)CC2 | -2 | 0.32 |
| CCc1sc(C(=O)Nc2cc(C(N)=O)ccc2CN2C(=O)CN(C)C2=O)cc1C | -28 | 4.31 |
| CC(C)n1cc(S(=O)(=O)Nc2ccccc2F)c2cccnc21 | 5 | -0.92 |
| N#Cc1cccc(CN2CCn3nnc(-c4nc(-c5ccsc5)no4)c3C2=O)c1 | 7 | -0.91 |
| CC(NCc1ccc2c(c1)OCCO2)C(C)n1cccn1 (configuration not stated) | -13 | 1.96 |
| N#Cc1nc(NCCCOC2CCOCC2)ccc1Cl | -15 | 2.08 |
| Cc1nc(C)c2c(n1)O[C@@H](CN(C)Cc1c(C)nn(C)c1C)C2 | -11 | 1.88 |
| O=C(c1cnc2ccccc2n1)N1CCN(Cc2csc(-c3ccco3)n2)CC1 | 2 | -0.22 |
| CNc1nc2c(c(C(=O)N3CCCC3)n1)CN(c1ncnc3c1CCC3)CC2 | -8 | 1.15 |
| CN(C)c1ccc(-c2nc([C@H]3CCOC3)cs2)cc1 | 36 | -0.78 |
| Clc1ccccc1[C@H]1C[C@@H](c2cccs2)Nc2nnnn21 | -4 | 0.41 |
| O=C(NCc1cc(C2CC2)on1)c1ncccc1O | 5 | -0.94 |
| CCCN(Cc1c(-c2ccccc2)noc1N(C)Cc1ccccc1)C[C@H](O)COCC | -2 | 0.3 |
| C[C@H]1c2cccn2CCN1CC(=O)NCC(F)(F)F | -21 | 2.1 |
| CC(=O)N1CCc2cc(S(=O)(=O)N3CCC(CC(=O)N4CCc5ccccc54)CC3)ccc21 | -18 | 1.69 |
| O=C(CCC(=O)N1CCC(O)CC1)N[C@@H]1C[C@H]1c1c(F)cccc1Cl | 16 | -2.08 |
| O=C(NC[C@H]1OC[C@@H](N(Cc2cccs2)Cc2cccs2)[C@@H]1O)c1ccccc1 | -10 | 1.34 |

| SMILES | % Inhibition [%] | Z score |
| --- | --- | --- |
| COc1cc(OC)c(-c2nc(-c3cccc4ccccc34)c(-c3ccccc3)[nH]2)cc1OC | -8 | 1.07 |
| O=C(c1c[nH]nn1)N1CCC[C@H](C(F)(F)F)C1 | -3 | 0.45 |
| CC(C)c1cnc(-c2ccc(NC(=O)NCC(=O)N(C)C)cc2)o1 | 6 | -1.05 |
| CC(C)(O)[C@@H]1CCCN1c1ncc(C(F)(F)F)s1 | -7 | 1.04 |
| CCC(C)CC(NC(=O)c1ccn(C)n1)C(=O)OC (configuration not stated) | -2 | 0.32 |
| NC(CN1CCC(O)CC1)=NOCC=Cc1ccccc1 | -15 | 1.54 |
| C#C[C@](C)(CC)NC(=O)Nc1ccc(F)cn1 | -7 | 1.13 |
| CCn1ccnc1Cn1cnc(-c2ccccc2)c1-c1c(OC)cccc1OC | -4 | 0.7 |
| O=C(NC1CCCCCCC1)c1occc1-c1ccccc1 | -6 | 1.09 |
| Cc1ccc(C[C@H](NC(=O)Cc2c(C)noc2C)c2ccccn2)cc1 | -9 | 1.09 |
| CCOC1CC(N(C)C(=O)NCCOC)C12CCCC2 (configuration not stated) | -11 | 1.47 |
| CC[C@H](C)N(CCC(=O)Nc1nnc(-c2cccc(Cl)c2)s1)C(=O)c1ccc(C(F)(F)F)cc1 | -18 | 1.95 |
| CC(C)CCOC(=O)C[C@@H]1NCCNC1=O | 34 | -3.86 |
| Cc1ccc(-c2csc(-c3c(-c4ccccc4)noc3C)n2)cc1 | 7 | -0.91 |
| Cc1c(Cl)cnn1CC(=O)N1CCC(C(=O)N2CCCC2)CC1 | -9 | 1.3 |
| NC(=O)N1CCC[C@H](C(=O)N2CCN(c3ccccc3Cl)CC2)C1 | 1 | -0.08 |
| O=C(NC1CC1)c1cccc(C(=O)N[C@H](C2CCC2)C2CC2)c1 | 0 | -0.05 |
| O=C1N[C@]2(CCOC2)C(=O)N1CCOc1c(Cl)cccc1Cl | 2 | -0.22 |
| CCN(C(=O)CCn1c(=O)cc(C(F)F)c2c(C)n(CC)nc21)c1ccccc1 | 27 | -3.03 |
| Cn1cc(C#N)cc1C(=O)NC1CCCCC1 | 5 | -0.71 |
| CCc1nncn1CCNC(=O)NCC[C@H]1CCc2ccccc21 | -12 | 1.54 |
| CCc1cccc(C)c1N1C[C@@H](C(=O)N(C)Cc2ncc[nH]2)CC1=O | 16 | -2.24 |

| SMILES | % Inhibition [%] | Z score |
| --- | --- | --- |
| Cc1ccc(-n2nccc2NC(=O)[C@H]2CCC(=O)N2C)nn1 | -3 | 0.37 |
| CCNC(=O)COc1cccc(NC(=O)C2=NN(c3ccc(F)cc3)C(=O)CC2=O)c1 | -5 | 0.75 |
| C[C@H](NC(=O)c1cnnn1-c1ccccc1)c1n[nH]c(N)n1 | -15 | 2.3 |
| CN(C)CC(=O)N1CCN(C(=O)C2CC(OCc3ccccc3)C2)CC1 (configuration not stated) | -8 | 1.07 |
| Cc1ccc2c(c1)C(NC(C)CCn1cccn1)CO2 (configuration not stated) | -2 | 0.24 |
| N#Cc1ncn(CN2CCN(c3ccc(F)cc3)CC2)n1 | 28 | -3.15 |
| COC(=O)c1ccccc1S(=O)(=O)Nc1cccn2c(C3CCC3)nnc12 | -1 | 0.14 |
| CN(Cc1cccc(C(=O)O)c1)C1CC(Oc2ccccc2)C1(C)C (configuration not stated) | -8 | 0.95 |
| CC(C)c1n[nH]c2c1CN(C(=O)Nc1ccc3c(c1)COC3=O)CC2 | -13 | 1.44 |
| O=C(O[C@H]1CCOC1=O)c1ccc(S(=O)(=O)N2CCCCC2)cc1 | -1 | 0.1 |
| Cc1ccc(N2C(=O)N(Cc3cccc(C#N)c3)S(=O)(=O)c3cccnc32)cc1 | -11 | 1.08 |
| CCN(CC)C(=O)c1cn2c3c(cccc3c1=O)CC2 | -1 | 0.09 |
| CC(=O)N[C@H]1CO[C@@H](CN(C)CCc2ccccc2)[C@@H]1O | 2 | -0.3 |
| Cc1cncc(CNC(=O)N[C@H]2CC23CCCCC3)c1 | -11 | 1.99 |
| COc1ccc2c(c1)C(N1CCN(C(=O)c3ccccc3OC)CC1)=Nc1ccc(C)cc1O2 | 7 | -0.86 |
| O=c1[nH]c2cc3[nH]c(=O)c(=O)c3cc2c1=O | -18 | 2.36 |
| Cn1ncnc1CCNS(=O)(=O)CC1CCCC1 | -7 | 1.01 |
| O=C(Cn1nnc2ccccc21)NC1CC1c1cccc(F)c1 (configuration not stated) | -24 | 2.78 |
| COc1ccc(C(NC(=O)C2CCCc3ccccc32)C(=O)O)cc1 (configuration not stated) | -13 | 1.28 |
| CC1CN(C(=O)Cn2cc(NC(=O)c3n[nH]c4c3CCC4)cn2)CC(C)O1 (configuration not stated) | -2 | 0.38 |
